Laboratory results taken from the RNAGym collection of RNA variant scans (doi:10.7554/elife.90254).
Read counts are not given, so values of variants with three or more changes are uncertain.

B1: OR4K15 (parent)
chain: GUUAACGGUCAUAGGCCAUGGAAACUAGGAGCACCAUUUCGCUGCCAGUGAAGAAAUGAACAAAGAAAAUCUGGGCCAGGCAGGCAUCAAAAGAAAUAGUCUUGCGCUCAACCAGAAAGUCUGUAAUCAUUUUAAGGGUA

Variants of: B1
Assay: self-cleavage, relative activity (ratio to wild type); higher = more cleavage; in vitro, sequencing; the parent is a self-cleaving ribozyme

Row | Variant | self-cleavage
1 | A62G A111G U122C | 0
2 | U12A A52G U87C | 1.1
3 | A30G A111G U132A | 0
4 | U9C A55G A63G | 1.56
5 | G7A A18U A96G | 1.72
6 | U2A U12A A96U | 1.19
7 | A30G U39C U57C U100A | 0.12
8 | A47G A63G A91G A95U | 0.44
9 | A22G G28C A30G A91G A125G | 0.26
10 | A27G A86G A98G | 0.69
11 | A62U A89G U127A | 2.9
12 | A24G A33U A51U U133C | 1.81
13 | A51G A67G U131C | 1.49
14 | A24G U57C A68G U72C | 0.38
15 | A11G A22G U49C A62G A68G | 0.11
16 | A24G U26A A56G U120A | 1.36
17 | U38C A56G A62U U122C | 1.14
18 | A11U A51G A55G A110C | 0.07
19 | G80A A89G A90U | 0.1
20 | A51G U102C A117G | 2.5
21 | U19C A63G A64G A110U | 1.08
22 | A66U A67G U87A U122C | 1.39
23 | A22G U38C U130C | 0.82
24 | U57C A89U A90G | 0.75

Row | Variant | self-cleavage
25 | A36G A56G A68G A140G | 1.79
26 | A33U U108C A126G | 0
27 | U19A A62U U97C U108C A126G U139C | 0
28 | A94U G106U U139C | 0.01
29 | A5G A47G A54G U57C | 0.51
30 | A18U A47G A56G U87C U103C A111U | 0.01
31 | A5U U39C U87C | 1.25
32 | U26G A56G U108A | 0.06
33 | C32U A62G A67G | 1.26
34 | A18U A24C A66G A98C C112U | 0.04
35 | A51U A78G A95G | 0.43
36 | U19C U100A A111G A117U U127C | 0
37 | U19A U37C A51G A96C | 1.46
38 | A22G A36U U108C A110C | 0
39 | A22U G41A A69G U130C | 0.63
40 | A54G A55G A92G A95G U131C | 1.34
41 | A11G A24G A92G | 0.6
42 | A5G U39C U57A A62G A67G | 0.9
43 | A59G U122C A126G | 1.25
44 | A11G A23G U102C | 1.07
45 | U9C A22G A55G | 0.86
46 | A69G A90C A111G | 0.03
47 | A18U A22G U70A | 0.87
48 | G106A A111G U120A | 0.01

Row | Variant | self-cleavage
49 | A33G U127C A140G | 0.56
50 | C34U A55G U103C U108C A118G U132C | 0
51 | A33C G50U A78U | 0.53
52 | A11G A23G A69G | 1.43
53 | C16U A110G U130C A140U | 0.04
54 | A47G A56G A62U A94G U127C | 1.01
55 | U49C G74A A82C | 0.19
56 | A13G A18G A55G | 0.55
57 | A5G A36U A98G U124A | 0.17
58 | A24G U39C U70C A82U | 0.33
59 | U43C A47G A52U A95G | 1.87
60 | A18G U19C A36U U72G A91U U108C | 0.03
61 | U9C U49C A64U A110G | 0.11
62 | U43C C76U A90G A91G | 0.18
63 | A4G A59G A66G C101U U108C | 0.06
64 | A11G A18G U43A U108A | 0.06
65 | C40A A82G A114C | 0.06
66 | A18U A116G A129G | 0.14
67 | A55G A64G A95G A116G | 0.4
68 | A18U U19C A67G U102A C113U | 0.11
69 | A23G A66U A89G | 1.07
70 | A30U A56G U70C | 0.45
71 | A66G C81U A126U | 0.43
72 | A30G A62G A64G U100C | 1.31

Row | Variant | self-cleavage
73 | U9A A36G A51G | 0.82
74 | U39C U70C A111G | 0.02
75 | U37C C109A A116G | 0.25
76 | U37C G53U U108C U120C U131C | 0
77 | G1C U2C U26A A36G A56G | 0.8
78 | U38C U39C A51G A55G A56G | 1.38
79 | A94G A118G U130C | 1.71
80 | A11G A22G A47G | 0.72
81 | A36C U37C U87C C121A U132C | 2.78
82 | G65A C85U A95G U108C | 0.01
83 | A24G A54G A116G | 1.32
84 | U37C U70C A135G | 1.16
85 | A47U A91G U120C | 0.29
86 | U2C A33G A67U | 0.51
87 | U72A G79U U102A G104A | 0.01
88 | A22G U49C A56G A82G | 0.23
89 | U3C U100C G123A | 1.51
90 | U26C G48A A51U A91G A116C U124C U132C | 0.1
91 | A18G A94G U120C | 0.84
92 | A23G A82G U102G | 0.08
93 | U43C A67G A92G U108A | 0.01
94 | A18G A55G A117G | 0.2
95 | A5G U19A A36G C105U | 0.39
96 | A24G A36U A56G | 0.53

Row | Variant | self-cleavage
97 | G65U U102C A111G | 0
98 | A23G A30G A33G U102C | 1.06
99 | U49C A78G A111G | 0.01
100 | A52G A63G A82G A92G C105U | 0.05
101 | A27G A60G A67G A89C A95G U133C | 2.34
102 | U19C A27C U57C | 1.12
103 | A24G U39C A78U A92G | 0.5
104 | U38C A52G A64G A82U | 0.25
105 | A33U U37C A111U A114G A117G | 0.02
106 | A55G A64U U70G | 0.43
107 | A52G A68G A94G | 1.3
108 | U2A A30G A78U A95G | 0.69
109 | U26C U49C A56G | 1.46
110 | A30G A117G U124C | 1.25
111 | U12C A67G A69G A91G A126G | 0.98
112 | A22G U38C A66C | 1.37
113 | A60G A69G A114G A126G | 0.17
114 | U57A A95G C109U | 0.45
115 | A23G U70C U72A A116U | 0.02
116 | U9C A59U A69G A78G A94G A111U | 0.03
117 | A51G U57A A96G A134G | 1.22
118 | A23G C45G A64G | 1.14
119 | U2G U3C A24G U103C | 1.24
120 | A30G A64G A66G U108C | 0.07

Row | Variant | self-cleavage
121 | U102C A111U A116G | 0.01
122 | U39A A69U A110U | 1.38
123 | A23C U49C U122C A126G | 0.64
124 | U2C C46U A55G A62G | 1.42
125 | U9C A11U A117G | 1.9
126 | G14A A52G A82C | 0.13
127 | A69U U102C A111G A129G | 0
128 | A18U A78G G83A A114G | 0.05
129 | U9C A56G A96G | 1.8
130 | A30G A67G A86G U100C U131C | 1.34
131 | U39C A52G A60G A69G U139A | 1.35
132 | A60G A78G U122A | 0.24
133 | U3A C112U U127C | 0.01
134 | C32U U43C U57C | 1.58
135 | A18G A33G U57C U102C G123A | 1.8
136 | G48U A51G A66G U130C | 0.57
137 | U19A G65A A67U A96G A118G | 1.52
138 | A114U A125G U133G | 0
139 | A18G A62G U131C | 0.92
140 | U43A A66G U108C U122C | 0
141 | A116U U127C U139C | 0.15
142 | A22U U70C U132C | 0.84
143 | G21U A24G A56G U108C | 0.07
144 | U12C U39A A68U | 0.54

Row | Variant | self-cleavage
145 | U43C U108C U122C | 0.01
146 | U2C A5G A52G A60G U102C A111C A126G | 0.01
147 | A52G U87C U102C A129G | 1.83
148 | C10U U39C U130C | 0.93
149 | U2C A13G U57C | 1.47
150 | A23G C77U A96G U97C A118G | 1.37
151 | U9C U57A U102C | 2
152 | U19A A94G G104A | 0.04
153 | A23G U39C A47G A66G | 1.04
154 | G7A A47U U87C A110U | 0.63
155 | A5G A90G U97C | 0
156 | A30G U38C A55U A60G A64G A67G U130C | 0.62
157 | A18U A54G A60U | 1.66
158 | U3C U72A U103C U127C U132A | 0.04
159 | A23C A59U U87A U102C | 1.55
160 | A11G U108A U132A | 0.02
161 | A56G A82G A118C U127A G137A | 0.15
162 | U12C A89G A140G | 0.65
163 | A60G C71U A129G | 0.13
164 | G41A A55G A90G A94G | 1.96
165 | A24U A33G A92G U122C | 0.48
166 | A82G A91G A96U U127C | 0.03
167 | A59G U100A A117G | 0.57
